# Measurements taken from the supplement of paper PMC12217912.
# This is one part of the list. Sequences were assembled here from the parent chain. Inactive controls read about 0.05.
# B1: TEV protease; numbered along this chain (parent)
# chain: MGESLFKGPRDYNPISSSICHLTNESDGHTTSLYGIGFGPFIITNKHLFRRNNGTLVVQSLHGVFKVKDTTTLQQHLVDGRDMIIIRMPKDFPPFPQKLKFREPQREERICLVTTNFQTKSMSSMVSDTSCTFPSGDGIFWKHWIQTKDGQCGSPLVSTRDGFIVGIHSASNFTNTNNYFTSVPKNFMELLTNQEAQQWVSGWRLNADSVLWGGHKVFMVKPEEPFQPVKEATQL
# Variants of: B1
# Assay: raw area under fraction-flipped curve 0-4 h after induction (AUC4h, not background-subtracted), DNA-recorder readout of cleavage of the substrate (dimensionless); higher = more cleavage of the substrate by the protease variant
# Settings: temperature: 34 °C; time window: 0-4 h after rhamnose induction
# Method: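 In vivo DNA recorder in E. coli TOP10(DE3) ΔrhaA at 34 °C. Each TEVp single-site mutant (parent TEVp 0) is paired with a single-site variant of the 7-mer TEVs (canonical ENLYFQ|S). The substrate sits between flexible linkers in a Bxb1-sfGFP-TEVs-SsrA fusion, so cleavage stabilises Bxb1 and speeds flipping of a recombination array, read by NGS. The value is the raw area under the fraction-flipped curve over 0-4 h after rhamnose induction (AUC4h), with ≥20 reads per time point. It is not background-subtracted; inactive controls average about 0.047.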
# 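Further: Bxb1 expression induced with 0.2% (w/v) L-rhamnose at OD600 near 0.5, cultures sampled hourly, flipped fraction per protease–substrate barcode pair counted by paired-end Illumina sequencing.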
Variant,area with substrate ENLYFAS,area with substrate ENLYFES,area with substrate ENLYFFS,area with substrate ENLYFGS,area with substrate ENLYFIS,area with substrate ENLYFLS,area with substrate ENLYFMS,area with substrate ENLYFNS,area with substrate ENLYFRS,area with substrate ENLYFSS,area with substrate ENLYFTS,area with substrate ENLYFWS,area with substrate ENLYFYS,area with substrate ENLYFCS,area with substrate ENLYFHS,area with substrate ENLYFKS,area with substrate ENLYFPS,area with substrate ENLYFVS,area with substrate ENLYFDS
G136H,0.055,0.0593,0.0746,0.0759,0.0513,0.0599,0.0784,0.0783,0.03,0.0614,0.0618,0.0647,0.0604,,,,,,
G136R,0.0582,0.0759,,0.0513,0.0503,,0.0735,0.0531,0.069,0.0586,,0.0676,0.0586,0.0607,0.0628,0.0579,0.0597,0.0602,
G136Q,0.0537,0.0472,0.0666,,0.0606,,0.0513,0.0807,0.058,0.0555,0.049,0.0615,0.0556,0.0685,0.0681,0.0711,0.0614,0.0746,0.0613
G136T,0.0441,0.0661,0.069,,0.0584,0.0565,0.0723,0.0645,0.0711,0.0591,0.0575,0.0605,0.0132,0.0569,0.0611,0.0794,0.0533,0.0414,0.0402
G136L,0.054,0.054,0.07,0.0547,0.0532,0.0669,0.0542,,0.0781,0.0459,0.0612,0.0553,,0.0639,,0.0637,0.0637,0.055,
G136W,0.0679,0.0659,0.071,0.0586,0.0562,0.0264,0.0662,0.0575,,,,0.0641,0.0534,,,0.0537,0.0509,0.0609,0.0171
K120W,0.0539,0.0539,0.0888,,0.0546,0.0512,0.068,,0.0462,0.0636,0.0499,,,,0.0235,,,0.0743,0.0561
K120H,0.0638,0.0688,0.0671,,0.0521,,0.0678,0.0659,,0.0469,0.0517,,0.0644,0.0646,,,0.0477,0.0621,0.0472
K120G,0.0468,0.0649,0.0796,,0.0632,,0.0507,0.0765,,0.0373,0.0646,,,,,,0.0535,,
K120Y,0.0633,0.0589,0.0452,0.0702,0.0506,,0.0664,0.0682,0.0617,0.0448,0.0544,0.0807,0.0622,,0.0709,0.0582,0.0767,0.0563,0.0791
K120P,0.0577,0.0638,0.0693,0.0608,0.0462,,0.0595,0.0576,,0.0537,0.0608,0.0549,0.0635,,,,0.0535,,0.0791
F140R,0.0561,0.0616,0.0748,0.0677,0.0606,0.0509,0.061,0.0517,0.0589,0.0645,0.0596,0.0532,0.0502,0.0615,0.0682,0.0558,0.0516,0.0577,0.0552
